Measured values taken from PubChem BioAssay AID588855 (National Center for Advancing Translational Sciences (NCATS), 2011).
The whole screen tested about 410,000 compounds, of which about 5,000 (1.2%) were called active. Inconclusive results, whose numbers are uncertain, are shown with a selection of clear calls. Calls follow the shape of the dose curve; as a rule, active = well fitted inhibition curve with a large enough effect; inconclusive = small, poorly fitted or top-dose-only effect; inactive = no such curve, though single readings can be large or run the other way. Where the call is inconclusive, the potency comes from a doubtful curve fit.

Assay: qHTS for Inhibitors of TGF-b; also: nearly all actives have a fitted effect of over 65% in size
Conditions: HepG2 CAGA-GFP TGF-b/SMAD3 reporter, GFP fluorescence, 18 h, TGF-beta stimulated, 500 pg/mL final; series mostly up to 46.1 µM; activity, negative = inhibition: at the top concentration
Procedure, shortened: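 Cell-based qHTS in HEPG2 carrying a CAGA-GFP Smad reporter; compounds added before 500 pg/mL final TGF-beta, 18 h incubation at 37 degrees C, GFP fluorescence quantified per cell by imaging cytometry.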
% is scaled to controls: 0 for no effect and ±100 for the full control effect; potency is read from the fitted curve at half-maximal effect; tags tell the direction and shape of the fitted curve.

| SMILES | Potency | activity, negative = inhibition |
| --- | --- | --- |
| COc1ccccc1N1CCN(CC(O)COc2ccc(C)c(C)c2)CC1 (stereo unspecified) | inconclusive: 10 µM [inhibitor, partial curve, poor fit] | – |
| Cc1nn(-c2ccccc2)c(C)c1/C=N/Nc1nc2ccccc2[nH]1 | inconclusive: 35.5 µM [inhibitor, single point] | – |
| CCOC(=O)C1=C(c2ccccc2)N=c2s/c(=C\c3cccc(O)c3)c(=O)n2C1c1cccs1 (stereo unspecified) | inconclusive: 11.2 µM [inhibitor, partial curve, poor fit] | – |
| COc1cccc(/C=N/NC(=O)c2[nH]c(C)c(C(=O)N/N=C/c3cccc(OC)c3O)c2C)c1O | inconclusive: 35.5 µM [inhibitor, single point] | – |
| O=C(CSc1nc(-c2ccccc2)[nH]c1-c1ccccc1)Nc1ccc2c(c1)OCCO2 | inconclusive: 35.5 µM [inhibitor, single point] | – |
| COc1ccc(NS(=O)(=O)c2csc(C(=O)Nc3ccccc3)c2)cc1 | inconclusive: 20 µM [inhibitor, single point] | – |
| COc1ccc(OC)c(S(=O)(=O)n2nnc3cc(Cl)ccc32)c1 | inconclusive: 3.98 µM [inhibitor, single point] | – |
| O=C(CN1CCCCC1)N1CCc2ccccc21 | – | inactive: 6.09% |
| Cc1c(C(=O)NCCC2=CCCCC2)oc2ccc(S(=O)(=O)N3CCC4(CC3)OCCO4)cc12 | – | inactive: -10.3% |
| Cc1nc(N2CCCC2)c2c(C(=O)N3CCN(c4cccc(C)c4C)CC3)c(C)oc2n1 | inconclusive: 11.2 µM [inhibitor, partial curve, poor fit] | – |
| COc1cc(C=Cc2nnc3c4ccccc4cnn23)cc(OC)c1OC | – | inactive: 1.24% |
| CCOC(=O)c1c(C)oc2c1c1c(c3ccccc32)OCN(CCCC(=O)O)C1 | inconclusive: 17.8 µM [inhibitor, single point] | – |
| CCOC(=O)C1=CCC2C(=O)N(C)C(=O)C12 (stereo unspecified) | – | inactive: -8.64% |
| COc1ccc(-c2noc(CN(C)S(=O)(=O)c3ccccc3)n2)cc1OC | – | inactive: 47.7% |
| CC1=C(C(=O)N(C(C)C)C(C)C)CC(CC(=O)NC(c2ccccc2)c2ccccc2)C(=O)N1Cc1ccc(F)cc1 (stereo unspecified) | inconclusive: 15.8 µM [inhibitor, single point] | – |
| CC(C)c1ccc(NC(=O)CCCc2nc(-c3ccc(Cl)cc3)no2)cc1 | – | inactive: 11.6% |
| OC[C@@H]1CN(Cc2ccc(-c3ccccc3)cc2)C[C@H](n2cnc3c(NCc4ccco4)ncnc32)O1 | inconclusive: 17.8 µM [inhibitor, single point] | – |
| Cc1cc(OCCCSc2nc(-c3ccc(C(C)(C)C)cc3)nc3cc(=O)[nH]n23)ccc1Cl | inconclusive: 2.51 µM [inhibitor, partial curve, poor fit] | – |
| Cc1cc(C)c(C)c(C(=O)C(=O)c2ccccc2)c1 | – | inactive: 3.4% |
| Cc1cccc(-c2noc(CNC(=O)COc3ccccc3C)n2)c1 | – | inactive: -9.79% |
| CCc1ccc(NC(=O)C2CCN(c3cc(C)nc4c(-c5ccc(Cl)cc5)c(C)nn34)CC2)cc1 | – | inactive: -4.42% |
| Cc1ccc(-n2cc(S(=O)(=O)c3ccc(C)cc3)[nH]c2=O)cc1 | inconclusive: 0.447 µM [inhibitor, partial curve, poor fit] | – |

| SMILES | Potency | activity, negative = inhibition |
| --- | --- | --- |
| CC(C)C(c1nnnn1C1CCCCC1)N1CCc2ccccc2C1 (stereo unspecified) | – | inactive: -9.88% |
| COc1cccc(N2CCN(C(=O)CN(C)S(=O)(=O)c3ccc4c(c3)c(=O)n(C)c(=O)n4C)CC2)c1 | – | inactive: -13.5% |
| COc1ccc(-n2nc(C(=O)NCC(=O)NCCCN3CC(C)CC(C)C3)c3ccccc3c2=O)cc1Cl (stereo unspecified) | – | inactive: -25.4% |
| COc1cc(/C=C2\SC(=S)N(NC(=O)c3ccc(O)cc3)C2=O)ccc1O | – | inactive: 35.5% |
| c1ccc(OCc2nnc3n2N=C(c2ccccc2)CS3)cc1 | inconclusive: 5.62 µM [inhibitor, single point] | – |
| Oc1c(Br)cc(Br)cc1CNc1ccc(F)cc1 | inconclusive: 35.5 µM [inhibitor, single point] | – |
| CCc1ccc(-c2cc(C(F)(F)F)n3nc(C(=O)Nc4c(C)nn(Cc5ccc(F)cc5)c4C)cc3n2)s1 | inconclusive: 35.5 µM [inhibitor, single point] | – |
| COc1ccc(NS(=O)(=O)c2cccc(C(=O)N/N=C(\C)c3cccnc3)c2)cc1 | inconclusive: 35.5 µM [inhibitor, single point] | – |
| Cc1onc(-c2ccccc2)c1-c1nc2ccccc2c(=O)o1 | inconclusive: 0.562 µM [inhibitor, full curve, poor fit] | – |
| Cc1cccc(-c2nnc3n2N=C(c2ccccc2Br)CS3)c1 | inconclusive: 22.4 µM [inhibitor, single point] | – |
| CCCOc1ccc(NC(=O)CC2C(=O)N(c3ccccc3)C(=O)N2CCC(C)C)cc1 (stereo unspecified) | inconclusive: 25.1 µM [inhibitor, single point] | – |
| C=CCn1c(COc2ccccc2)nnc1SC(C)C(=O)N/N=C/c1cc(Cl)ccc1O (stereo unspecified) | – | inactive: -1.2% |
| COC(=O)C(C)Sc1nnc2cc(C)c3cc(C)cc(C)c3n12 (stereo unspecified) | inconclusive: 35.5 µM [inhibitor, single point] | – |
| CCCNC(=O)C(Cc1cccc(C#N)c1)NC(=O)c1ccc(C#N)cc1 (stereo unspecified) | – | inactive: -24.3% |
| CC1(C)CN(Cc2ccccc2)C(=O)[C@H]1CC(=O)Nc1ccc(Br)cc1 | – | inactive: -21.7% |
| CSc1ccc(CN2CCN(CC=C(C)C)C(CCO)C2)cc1 (stereo unspecified) | – | inactive: 9.15% |
| CCCCCCSc1cc(-c2nc3ccc(Cl)cn3c2NC2CCCCC2)ccc1OC | inconclusive: 6.31 µM [inhibitor, full curve, poor fit] | – |
| CCc1ccc2oc(-c3ccc(OC)cc3)cc(=Nc3c(C)n(C)n(-c4ccccc4)c3=O)c2c1 | inconclusive: 22.4 µM [inhibitor, single point] | – |
| CCCN(CCC)CCCNC(=O)Cn1cnc2onc(-c3ccc(F)cc3)c2c1=O | – | inactive: -16% |
| CC(=O)Nc1ccc(OCC(O)Cn2c3ccccc3c3ccccc32)cc1 (stereo unspecified) | inconclusive: 22.4 µM [inhibitor, single point] | – |
| O=C(c1ccc([N+](=O)[O-])cc1[N+](=O)[O-])n1cnc2ccccc21 | inconclusive: 31.6 µM [inhibitor, single point] | – |
| O=C(CCCn1c(=O)[nH]c2ccccc2c1=O)NCc1ccccc1Cl | – | inactive: -15.5% |

| SMILES | Potency | activity, negative = inhibition |
| --- | --- | --- |
| CC(C)=CCC/C(C)=C/CNC(=O)C[C@H]1C[C@H](C(=O)N2CCCCC2)[C@@]2(C)c3[nH]c4cc(CCC(=O)N(C)C)ccc4c3CCN2C1=O | inconclusive: 35.5 µM [inhibitor, single point] | – |
| CCN(CC)C(=O)CSc1nnc2nnc3cc(Cl)ccc3n12 | active: 3.98 µM | – |
| CCN1CC(CN(C)Cc2nc(-c3ccc(C(F)(F)F)cc3)no2)CC1=O (stereo unspecified) | inconclusive: 14.1 µM [inhibitor, single point] | – |
| COc1cccc(NC(=O)CSc2nc3ccc(NC(=O)c4ccco4)cc3s2)c1 | inconclusive: 35.5 µM [inhibitor, single point] | – |
| CCc1nn(CC(=O)NCCCOC)c(=O)c2cc3occc3n12 | inconclusive: 14.1 µM [inhibitor, partial curve] | – |
| COc1ccc(C(=O)Nc2ccc(-n3nncc3-c3ccc(OC)c(OC)c3)cc2)cc1 | inconclusive: 2.51 µM [inhibitor, partial curve] | – |
| Cc1ccc(S(=O)(=O)N2CCN(C(=O)Cn3c(=O)oc4ccccc43)CC2)c(C)c1 | – | inactive: -2.66% |
| COc1ccccc1NC(=O)c1ccc2c(=O)n3c(nc2c1)CCC3 | – | inactive: -1.72% |
| O=C1CSC2(C(=O)N3CCCc4cccc2c43)N1c1cccc(C(F)(F)F)c1 (stereo unspecified) | inconclusive: 15.8 µM [inhibitor, single point] | – |
| CC(C)C[C@H]1CNC(=S)N1CC1CCCN1C[C@H](Cc1ccc(O)cc1)N1C[C@H](Cc2ccccc2)N(CC2CCCCC2)C1=S (stereo partly specified) | inconclusive: 5.01 µM [inhibitor, full curve, poor fit] | – |
| CCc1ccc(NC(=O)c2cc3c(=O)n(Cc4cccs4)ccc3nc2C)cc1 | inconclusive: 7.08 µM [inhibitor, partial curve, poor fit] | – |
| COc1ccc(Cl)cc1NC(=O)CN(c1cc(C)cc(C)c1)S(=O)(=O)c1c(C)n[nH]c1C | inconclusive: 20 µM [inhibitor, single point] | – |
| O=C(CCn1c(=S)oc2ccccc21)N1CCCCC1 | inconclusive: 6.31 µM [inhibitor, single point] | – |
| Cc1ccc2ncc(C)c(/C=C/c3ccc(N(C)C)cc3)c2c1 | inconclusive: 22.4 µM [inhibitor, single point] | – |
| Cc1ccc(S(=O)(=O)N2CCC(C(=O)Nc3ccccc3N3CCCC3)CC2)cc1C | inconclusive: 14.1 µM [inhibitor, partial curve, poor fit] | – |
| COc1ccc(C(=O)COC(=O)c2ccc(NC(=O)c3ccccc3)cc2)cc1 | – | inactive: -8.28% |
| Cc1ccc(S(=O)(=O)N(C)c2ccc3c(c2)C(=O)c2ccccc2-3)cc1 | – | inactive: -1.31% |
| COc1cccc(CN(C)C(=O)c2ccc(Oc3ccccc3)cc2)c1OC | inconclusive: 17.8 µM [inhibitor, single point] | – |
| CCc1cccc2cc3c(N)c(C(=O)Nc4ccc(S(=O)(=O)N5CCCC5)cc4)sc3nc12 | – | inactive: 43.3% |
| Fc1ccc(Nc2nnc(C(F)(F)F)s2)cc1Cl | inconclusive: 35.5 µM [inhibitor, single point] | – |
| Cc1ccccc1-c1nc(CS(=O)(=O)CC(=O)NC(C)c2ccccc2)c(C)o1 (stereo unspecified) | inconclusive: 0.112 µM [inhibitor, full curve, poor fit] | – |
| COC(=O)[C@@]1(Cc2ccc(OC)cc2)[C@@H]2C(=CC(=O)[C@H]2CC(=O)C(=O)N(C)C)CN1C(=O)c1ccccc1 | inconclusive: 22.4 µM [inhibitor, single point] | – |
